Laboratory results reported in paper PMC4336329 (PLoS ONE, 2015).
The whole screen tested about 310,000 compounds, of which about 14,000 (4.5%) showed an effect of 50% or more. Effects have a minus sign here. The list shows a part of the results.
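Further: peak tail current of the secondary pulse compared with the same well before compound.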

What follows are molecules tested against human ether-à-go-go-related gene (hERG) potassium channel (human, UniProt Q12809) (assay: primary screen, population patch clamp on CHO cells stably expressing hERG).
Chain of human ether-à-go-go-related gene (hERG) potassium channel (Q12809 whole entry, looked up): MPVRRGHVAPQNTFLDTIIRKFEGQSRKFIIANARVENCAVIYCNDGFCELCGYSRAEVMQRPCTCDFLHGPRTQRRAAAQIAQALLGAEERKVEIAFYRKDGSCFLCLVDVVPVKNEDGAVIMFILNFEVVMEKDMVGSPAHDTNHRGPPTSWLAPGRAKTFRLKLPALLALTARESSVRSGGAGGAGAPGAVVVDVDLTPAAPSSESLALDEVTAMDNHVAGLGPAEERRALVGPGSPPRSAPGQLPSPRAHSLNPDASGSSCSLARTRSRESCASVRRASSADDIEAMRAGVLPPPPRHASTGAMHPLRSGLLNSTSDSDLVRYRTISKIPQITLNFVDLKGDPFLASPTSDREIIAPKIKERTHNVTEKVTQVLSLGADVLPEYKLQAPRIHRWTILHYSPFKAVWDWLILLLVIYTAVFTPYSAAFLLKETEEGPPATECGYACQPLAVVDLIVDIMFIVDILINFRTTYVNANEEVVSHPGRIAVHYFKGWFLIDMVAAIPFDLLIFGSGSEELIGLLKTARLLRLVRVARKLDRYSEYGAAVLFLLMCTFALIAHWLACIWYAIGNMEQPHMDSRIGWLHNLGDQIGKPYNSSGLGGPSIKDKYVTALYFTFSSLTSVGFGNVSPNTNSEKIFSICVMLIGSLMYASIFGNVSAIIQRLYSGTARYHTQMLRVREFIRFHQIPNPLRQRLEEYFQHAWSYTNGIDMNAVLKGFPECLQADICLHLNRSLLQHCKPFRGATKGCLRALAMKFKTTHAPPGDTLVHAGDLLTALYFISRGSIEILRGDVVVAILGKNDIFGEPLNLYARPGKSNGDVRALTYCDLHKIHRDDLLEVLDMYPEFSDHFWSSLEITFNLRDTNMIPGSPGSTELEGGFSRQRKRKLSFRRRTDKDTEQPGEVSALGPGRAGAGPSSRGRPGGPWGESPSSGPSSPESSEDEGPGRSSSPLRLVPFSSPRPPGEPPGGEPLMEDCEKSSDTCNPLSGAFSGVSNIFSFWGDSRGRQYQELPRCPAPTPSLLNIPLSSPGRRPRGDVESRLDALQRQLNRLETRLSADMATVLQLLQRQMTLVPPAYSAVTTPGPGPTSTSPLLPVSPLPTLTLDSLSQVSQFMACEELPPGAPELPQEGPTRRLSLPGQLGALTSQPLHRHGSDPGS
In the case of `O=c1c(Cc2ccc(Cl)cc2)c(O)ccn1Cc1cccc(Cl)c1`, the “hERG current change (%, negative = inhibition) at 10uM” value is reported as 7.27%.
For `CC1CCc2sc(C(=O)NCC(C)(C)N3CCOCC3)cc2C1` (stereo not drawn), the “hERG current change (%, negative = inhibition) at 10uM” value was -32.6%.
`O=[N+]([O-])c1cc(C(F)(F)F)ccc1NCCc1ccccn1` was tested, and the “hERG current change (%, negative = inhibition) at 10uM” value was -40%.
`CCOC(=O)c1ccc(NC(=O)CCS(=O)(=O)c2ccc(Br)s2)cc1` was tested, and the “hERG current change (%, negative = inhibition) at 10uM” value was 9.92%.
`Cc1ccc(NC(=S)N=Nc2c(O)n(C)c3ccc(S(=O)(=O)N4CCOCC4)cc23)cc1C` was tested, and the “hERG current change (%, negative = inhibition) at 10uM” value was 10.9%.
For `CC(C)NC(=S)N1CCN(C(c2ccccc2)c2ccccc2)CC1`, the “hERG current change (%, negative = inhibition) at 10uM” value was -34.7%.
`CSc1ccccc1NC(=O)CN(C)CC(=O)NCC(=O)Nc1ccc(F)cc1` was tested, and the “hERG current change (%, negative = inhibition) at 10uM” value was -17.1%.
In the case of `COc1ccccc1N1C(C)=CC(=C(C#N)c2nc3ccccc3s2)C=C1C`, the “hERG current change (%, negative = inhibition) at 10uM” value is reported as 3.3%.
With `COc1ccc(N2C(=O)N[C@@H](Cc3ccccc3)C2=O)cc1OC` the “hERG current change (%, negative = inhibition) at 10uM” value was 15.1%.
`CC1CCCCN1C(=O)c1c([N+](=O)[O-])cnn1C` (stereo not drawn) was tested, and the “hERG current change (%, negative = inhibition) at 10uM” value was 18.7%.
With `N#C/C(=C(/O)CN1CCOCC1)c1nc2ccccc2s1` the “hERG current change (%, negative = inhibition) at 10uM” value was 13.8%.
In the case of `O=C(NCCc1ccc(F)cc1)c1cc([N+](=O)[O-])ccc1N1CCOCC1`, the “hERG current change (%, negative = inhibition) at 10uM” value is reported as -71.4%.
For `N=c1c(S(=O)(=O)c2ccc(Cl)cc2)cc2c(=O)n3ccccc3nc2n1Cc1ccco1`, the “hERG current change (%, negative = inhibition) at 10uM” value was 13.1%.
In the case of `O=C(Nc1cccnc1)OC1CCCCC1`, the “hERG current change (%, negative = inhibition) at 10uM” value is reported as 0.581%.
With `Cc1ccc(S(=O)(=O)N2CCN(C(=O)c3ccc(N4CCCCC4)c([N+](=O)[O-])c3)CC2)cc1` the “hERG current change (%, negative = inhibition) at 10uM” value was -10.2%.
With `COc1cc(C#N)ccc1OCC(=O)c1ccc2c(c1)OCCO2` the “hERG current change (%, negative = inhibition) at 10uM” value was -44.1%.
With `CCc1ccc(-c2cc(C(=O)N/N=C/c3c[nH]c4ccccc34)[nH]n2)cc1` the “hERG current change (%, negative = inhibition) at 10uM” value was 5.65%.
With `C/C(=N\NC(=O)c1ccc(O)cc1)c1cc2ccccc2o1` the “hERG current change (%, negative = inhibition) at 10uM” value was -50.3%.
With `COc1ccc(CNc2ncnc3ccccc23)cc1` the “hERG current change (%, negative = inhibition) at 10uM” value was 21.7%.
`CCn1c2ccccc2c2cc(NC(=O)c3ccc([N+](=O)[O-])cc3)ccc21` was tested, and the “hERG current change (%, negative = inhibition) at 10uM” value was 3.25%.
With `CCCc1cc(NC(=O)COC(=O)c2nccnc2N)n(-c2ccccc2)n1` the “hERG current change (%, negative = inhibition) at 10uM” value was -22.4%.
`O=C(CSc1nnc2nnc3ccccc3n12)N1CCOCC1` was tested, and the “hERG current change (%, negative = inhibition) at 10uM” value was 19.5%.
`Cc1ccc(Nc2nc(NCc3ccco3)c3ccccc3n2)cc1.Cl` was tested, and the “hERG current change (%, negative = inhibition) at 10uM” value was 16.9%.
For `O=C(Cn1nc(-c2ccccc2)c2ccccc2c1=O)NCCN1CCOCC1`, the “hERG current change (%, negative = inhibition) at 10uM” value was 5.43%.
